Laboratory results published in a collection of fitness landscapes (doi:10.1016/j.celrep.2020.107928).
Whole data set: some 81,000 sequences, median “one-hybrid fitness for binding parS DNA” near -0.17, cut for the highest 2% near 0.51. This is one part of the list.

B1: Caulobacter ParB omega fusion; a variant is named by its letters at X, in order, B8GW30 (parent)
chain: MESVVVGEPGMSEGRRGLGRGLSALLGEVDAAPAQAPGEQLGGSREAPIEILQRNPDQPRRTFREEDLEDLSNSIREKGVLQPILVRPSPDTAGEYQIVAGERAWRAAQRAGLKTVPIMVRELDDLAVLEIGIIENVQRADLNVLEEALSYKVLMEKFERTQENIAQTIGKSXSHVANXMRLLXLPDEVQSYLVSGELTAXHARAIAAAADPVALAKQIIEGGLSVRETEALARKAPNLSAGKSKGGRPPRVKDTDTQALESDLSSVLGLDVSIDHRGSTGTLTITYATLEQLDDLCNRLTRGI

Variants of: B1
Assay: one-hybrid fitness for binding parS DNA (scaled: cognate 1, non-cognate 0); higher = stronger binding
Conditions: with parS DNA site
Procedure, shortened: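 Fitness is the rescaled log change in variant-to-wild-type read ratio, measured by Illumina sequencing of plasmids before and after bacterial one-hybrid selection. The scale puts cognate at 1 and non-cognate at 0. Selection of Caulobacter ParB libraries, four specificity codons randomised, took place in E. coli USO with a HIS3 reporter, site 19 bp from the promoter, over 48 hours at 37°C on M9-minus-histidine with 0.1 mM IPTG and 5 mM 3-AT.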

one-hybrid fitness for binding parS DNA, 0.874:
RTEC

one-hybrid fitness for binding parS DNA, 0.649:
RFWT

one-hybrid fitness for binding parS DNA, 0.719:
RNFS

one-hybrid fitness for binding parS DNA, 0.476:
RIYN

one-hybrid fitness for binding parS DNA, 0.81:
RCPG

one-hybrid fitness for binding parS DNA, ≤ 0.2:
SWAT
WHCL
SNKT
KIDV
VARV
HHFG
GVSI
QSWS
PRAG
SPVI
TLWM
GQTC
APPC
ANDE
VDNG
KSMT
LPQG
ILET
HHVR
NSLG
MCNR
ISYC
MKSH
KLKA
NVEF
PMKW
ENYS
DRNA
NSRF
HRLP
VTYC
YENN
PKTL
QEPF
WPYS
QQPY
PLRK
DPGL
AMTS
PPQF
GAVT
PLTI
TYTV
YYAQ
CQRE
TYVI
FVLV
RRQW
SVCI
HVHA
HEAT
RHIK
MRTV
CLTT
MLAL
NAQC
EMPT
QHVC
RFYR
KVKW
LVQP
QHGK
DDVW
TCKM
QAQF
HPTM
QYLC
YGNT
MLTW
TAER
YVCD
QHIT
SRHA
SYCT
VPRG
YFDG
QWAL
IFKN
RCGF
RYGE
HQWC
QVPR
RCNV
TPIW
KWAK
NSPT
PVIV
HSHS
GRER
CYLG
LHEA
SEKD
GDTQ
RLFV
HCEI
GEHA
CELR
WNAT
AYPM
RVNW
MRNI
TIEK
GWNR
CMMG
DHID
VRRP
MRST
CSLI
VLEC
RHKP
LFRI
YASM
AEMG
VKKM
SQIL
QHLV
GRAR
PWMG
CLKF
DKVH
TAPV
EPPA
QQVD
EPQN
PYHK
QAVH
SNLA
ICWT
TWPY
VLRS
APRH
PTAN
TKAN
RDKQ
HFHV
AKEG
WYKT
KRPW
HFHY
ECES
SRRH
KEVG
TGLE
WWPR
HANR
QLIK
TKPC
FNHG
